Measurements published in the RNAGym collection of RNA variant scans (doi:10.7554/elife.90254).
The source gives no read counts; variants with many changes may rest on few reads.

B1: LINE1-full (parent)
chain: UACGUAGGUGGUUUUCCCCUGAUAGUGCUAAGGGGGCCUGGAAGUUUGGACUGGGCAGAGCUCAACACAGCGUGGCAAAGUGGCUGUGGCUAGACUGCCUCUCUGGAUUCCUCGUCACUCAGCAGGGCAUCUCUGAGAGAAAUGCC

Variants of: B1
Experiment: self-cleavage, relative activity (ratio to wild type); higher = more cleavage; in vitro, sequencing; the parent is a self-cleaving ribozyme
Work on U13A U112C C113U yielded a self-cleavage of 0.48. Work on G34A G54A A59G yielded a self-cleavage of 0.26. In the case of A2G U46C U73C U85C, the self-cleavage is reported as 1.31. U13A A79G A107G A136G showed a self-cleavage of 1.23. Work on U12A U26A A42G U46C U134C yielded a self-cleavage of 0.87. For U15A U23C U108C A129G U132C, the self-cleavage was 0. For U47A U100C A142G, the self-cleavage was 1.84. G11A U14C A129G gave a self-cleavage of 0.71. For U20A A79U A117G, the self-cleavage was 1.98. A64C A79G C120A A121G A138G gave a self-cleavage of 0.39. Variant U12G A43G G139U has a self-cleavage of 1.7. Work on U13G U20G A50U yielded a self-cleavage of 0.68. Variant U39A A94G A136G has a self-cleavage of 0.18. Variant A2G A77G U81C has a self-cleavage of 1.79. Work on C16U A94U G114A A140G yielded a self-cleavage of 0.06. Work on A31U U52A A78G G97A yielded a self-cleavage of 0.23. C56U C84U A121U U143C gave a self-cleavage of 0.03. U46C A107U A121G gave a self-cleavage of 2.69. With A31U U87A U108C the self-cleavage was 0.18. In the case of U85C A94C C101U U102A, the self-cleavage is reported as 0. U9C G11U U14C G34U U108C U119C showed a self-cleavage of 2.12. For A94U U104C U132C, the self-cleavage was 0.96. U102A U132C A136U gave a self-cleavage of 1.66. For U14C U20A G54A A65C U100C G126A U134C, the self-cleavage was 0.03. Variant U15C A67G U134C has a self-cleavage of 0.73. For A24U U46C U104A U112A, the self-cleavage was 1.88. For U13C C28U A42U U73C, the self-cleavage was 0.51. Work on A57U A79U C116U yielded a self-cleavage of 0.05. Variant U112C U134A U143C has a self-cleavage of 0.34. In the case of U52C A77U C113U A141U, the self-cleavage is reported as 1.14. Work on A50U A117C U143C yielded a self-cleavage of 2.18. C28A A30G U102C A124G gave a self-cleavage of 2.3. In the case of A24G A43G U108C A117U, the self-cleavage is reported as 2.15. In the case of A94U U96C C101U, the self-cleavage is reported as 0.03. With U12C C17U U102C U134A the self-cleavage was 0. For C95U U119C A124U, the self-cleavage was 0.26. Variant A65G C66U G127A has a self-cleavage of 0.02. Work on C3A A43G A59G A140G yielded a self-cleavage of 0. U1A U81A C113U gave a self-cleavage of 1.39. U23C A57G A78G C111U A142G gave a self-cleavage of 0.54. With A24G A59G G105A the self-cleavage was 0.12. A77U U85C U115C showed a self-cleavage of 0.15. For A57U A65G A77G A78G A140G A142G, the self-cleavage was 0. Variant U14C A22G U45C has a self-cleavage of 0.92. With U13C U47A A59G the self-cleavage was 0.11. In the case of U14G A22G A50G A59G G75A U143A, the self-cleavage is reported as 0.24. G34A A43G A65G U81A A117U U130C U134G gave a self-cleavage of 0.03. U1C U52C U73C G75A A141G showed a self-cleavage of 0.42. U45C U73C G139A showed a self-cleavage of 0. Variant U26C A138G A141G has a self-cleavage of 1.09. With G7A U9C U96G U108C the self-cleavage was 0. U23C A42G A69G gave a self-cleavage of 0.86. A22G A77G A92G A124U gave a self-cleavage of 0. In the case of U12C U23C C146U, the self-cleavage is reported as 1.84. Variant U100C A138G U143C has a self-cleavage of 2.3. Work on U29G C51U A129U A136U yielded a self-cleavage of 1.67. Variant U13C A22G U26A has a self-cleavage of 0.49. A59G U62C U73C gave a self-cleavage of 0. In the case of A78G C118U U130C, the self-cleavage is reported as 0.61. With U52C A57G U100C A141G the self-cleavage was 1.75. For A65U A69U U87C U96A, the self-cleavage was 0. Variant C38U A64U U73A A107G has a self-cleavage of 0.41. Variant C16U G97A G105A G114A has a self-cleavage of 0.14. Work on G34A U62C G83U yielded a self-cleavage of 0.01. In the case of G35A A79G A129U A142G, the self-cleavage is reported as 0. In the case of A43U A67G U132A, the self-cleavage is reported as 0.57. Variant A31C A64U U85A has a self-cleavage of 0.12. U13A A31G U52A A67G showed a self-cleavage of 0.21. U5A U12G U26C U85C A140G U143C showed a self-cleavage of 0. For U5C U15C A117U, the self-cleavage was 0.44. Work on U39C U46C A140G yielded a self-cleavage of 1.12. Variant U12G U47A U134C has a self-cleavage of 0.71. In the case of U14C U47A C133U A140G, the self-cleavage is reported as 0.38. For U1A A59U U62C A124G, the self-cleavage was 0. U5A U52A A57U gave a self-cleavage of 0.24. With U12C A124U C133U U143C the self-cleavage was 1.3. For A57U G86A U130C, the self-cleavage was 0.08. For U13C U20C A22G U115C A117U, the self-cleavage was 1.57. Work on U5A U20G C61U A136G yielded a self-cleavage of 0.08. In the case of A64G A65U A107G, the self-cleavage is reported as 0. U13C A124G A140G showed a self-cleavage of 0.27. With C3U A57G A77G G144A the self-cleavage was 0.96. In the case of G4A U85A U100A A138G, the self-cleavage is reported as 0.02.
